The text below walks through data of publication PMC4336329 (PLoS ONE, 2015).

About 2,200 (0.71%) of roughly 310,000 compounds showed an effect of 50% or more. The effect is printed as a negative number. Some of the results follow.

Sequence of human ether-à-go-go-related gene (hERG) potassium channel (Q12809 whole entry, looked up): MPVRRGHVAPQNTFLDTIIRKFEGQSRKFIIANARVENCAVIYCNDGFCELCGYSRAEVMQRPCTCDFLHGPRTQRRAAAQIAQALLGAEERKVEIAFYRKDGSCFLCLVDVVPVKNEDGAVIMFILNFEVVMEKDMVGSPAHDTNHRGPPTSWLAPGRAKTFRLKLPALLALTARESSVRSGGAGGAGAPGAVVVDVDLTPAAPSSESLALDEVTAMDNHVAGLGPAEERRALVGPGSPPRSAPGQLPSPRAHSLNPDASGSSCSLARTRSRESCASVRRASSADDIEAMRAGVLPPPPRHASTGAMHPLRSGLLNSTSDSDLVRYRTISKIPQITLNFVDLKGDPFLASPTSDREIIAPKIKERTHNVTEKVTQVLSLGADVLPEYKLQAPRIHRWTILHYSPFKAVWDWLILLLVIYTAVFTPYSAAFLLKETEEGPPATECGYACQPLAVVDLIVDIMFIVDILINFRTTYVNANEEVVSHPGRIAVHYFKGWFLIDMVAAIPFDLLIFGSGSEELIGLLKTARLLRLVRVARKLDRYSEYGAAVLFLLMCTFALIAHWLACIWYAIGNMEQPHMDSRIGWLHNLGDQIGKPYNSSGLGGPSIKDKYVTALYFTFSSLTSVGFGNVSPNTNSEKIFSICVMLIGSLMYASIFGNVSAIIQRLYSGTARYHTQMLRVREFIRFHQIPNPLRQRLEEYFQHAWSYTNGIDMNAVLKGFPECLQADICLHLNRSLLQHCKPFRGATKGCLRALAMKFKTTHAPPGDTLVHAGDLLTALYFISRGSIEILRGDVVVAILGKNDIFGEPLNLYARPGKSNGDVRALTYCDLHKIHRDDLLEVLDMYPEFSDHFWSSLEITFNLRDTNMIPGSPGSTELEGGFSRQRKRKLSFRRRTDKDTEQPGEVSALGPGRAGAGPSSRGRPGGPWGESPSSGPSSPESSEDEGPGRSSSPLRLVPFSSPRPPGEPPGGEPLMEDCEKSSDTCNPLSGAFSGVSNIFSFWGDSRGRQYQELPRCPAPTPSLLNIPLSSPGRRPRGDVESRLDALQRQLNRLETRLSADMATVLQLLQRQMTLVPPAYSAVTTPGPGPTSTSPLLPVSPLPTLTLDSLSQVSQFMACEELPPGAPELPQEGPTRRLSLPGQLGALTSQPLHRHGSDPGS

The assay addresses human ether-à-go-go-related gene (hERG) potassium channel (human, UniProt Q12809). Put plainly: primary screen, population patch clamp on CHO cells stably expressing hERG.
Turning to `CCn1c(SCC(=O)Nc2nccs2)nnc1-c1ccccn1`, the “hERG current change (%, negative = inhibition) at 1uM” value amounted to 7.72%. To `COc1ccccc1C(=O)NNC(=O)C(=O)Nc1ccc(C)cc1` belongs 13.5%; to `Cn1c(=O)c(=O)n(C)c2cc(S(=O)(=O)N3CCCC3C(=O)NCc3cccnc3)ccc21` (centres unmarked), 6.41%.

Regarding `CN(C(=O)CSc1nnc(Nc2ccccc2)s1)c1c(N)n(Cc2ccccc2)c(=O)[nH]c1=O`, the “hERG current change (%, negative = inhibition) at 1uM” value turned out to be 11.7%. Turning to `O=C(Nc1ccc(Cl)cc1)[C@@H]1[C@@H]2C(=O)N(c3cccc(F)c3)C(=O)[C@@H]2[C@H]2C=CC=NN21`, the “hERG current change (%, negative = inhibition) at 1uM” value is -0.0466%. With `CCOc1ccccc1C1C(C(=O)OC)=CN(C)C=C1C(=O)OC`, the “hERG current change (%, negative = inhibition) at 1uM” value is listed as 10.4%. In the case of `COc1ccc(C2C(=O)c3ccccc3C2=O)c(OC)c1`, the “hERG current change (%, negative = inhibition) at 1uM” value is reported as 5.28%. Take `COc1ccc(NC(=O)COC(=O)/C=C/C(=O)OCC(=O)Nc2ccc(OC)c(Cl)c2)cc1Cl`: the “hERG current change (%, negative = inhibition) at 1uM” value turned out to be 17.5%.

Turning to `O=C(NC(Cc1ccccc1)C(=O)O)/C(=C/c1ccc([N+](=O)[O-])cc1)NC(=O)c1ccc(Br)o1` (centres unmarked), the “hERG current change (%, negative = inhibition) at 1uM” value was 12.9%. To `COc1cc(/C=N/Nc2ccc(Cl)c(C(=O)O)c2)ccc1OC(=O)c1ccc(F)cc1` belongs 4.99%; to `O=C(Nc1ccccc1C(=O)N1CCCCCC1)c1ccccc1`, 12.9%; to `COCCNCC#CCOc1ccc(OC)cc1`, 4.32%. Regarding `O=S(=O)(Cc1ccccc1)N1CCN(c2ccccc2)CC1`, the “hERG current change (%, negative = inhibition) at 1uM” value is listed as 9.65%. Next, `CN1C(C(=O)NCc2ccccc2)CC2Cn3c(nc4cc(Cl)c(Cl)cc43)C21` (centres unmarked): -11.5%. As for `COc1ccc(N(CC(=O)NC(C)c2ccccc2)S(=O)(=O)c2ccc(C)cc2)cc1` (centres unmarked), the “hERG current change (%, negative = inhibition) at 1uM” value is reported as 0.245%. With `Cc1cc(C)cc(N(CC(=O)Nc2ccccc2-c2ccccc2)S(=O)(=O)c2ccccc2)c1`, the “hERG current change (%, negative = inhibition) at 1uM” value is on record as 14.7%. Turning to `CCOC(=O)C1=C(O)/C(=C/c2cn(CC(=O)NCC3CCCO3)c3ccccc23)SC1=Nc1ccc(C)cc1` (centres unmarked), the “hERG current change (%, negative = inhibition) at 1uM” value is reported as 4.15%. Take `CCc1nnc(NC(=O)C2c3ccccc3Oc3ccccc32)s1`: the “hERG current change (%, negative = inhibition) at 1uM” value came to 6.86%. As to `O=C(CS(=O)(=O)Cc1ccccc1)Nc1nnc(C2CCCCC2)s1`, the “hERG current change (%, negative = inhibition) at 1uM” value is -11.9%.

`Cc1ccc(-c2ccc(/C=N/NC(=O)CN3CCOCC3)o2)cc1[N+](=O)[O-]`: the “hERG current change (%, negative = inhibition) at 1uM” value was -6.02%.

Consider `COc1ccc(CN2C(=O)NC3(CCCc4ccccc43)C2=O)cc1F` (centres unmarked), for which the “hERG current change (%, negative = inhibition) at 1uM” value was 0.226%. Take `C/C(=N\NC(=O)C1CCCN(S(=O)(=O)c2ccccc2)C1)c1cccnc1` (centres unmarked): the “hERG current change (%, negative = inhibition) at 1uM” value is listed as 6.08%. Regarding `CCN(CC(=O)Nc1ccc(OC(F)F)cc1)C1CCCCC1`, the “hERG current change (%, negative = inhibition) at 1uM” value is recorded as -61.6%. As to `CC(C)(O)C#Cc1ccccc1C(=O)NC(CC(N)=O)C(=O)O` (centres unmarked), the “hERG current change (%, negative = inhibition) at 1uM” value is recorded as 12.1%. Next, `CCCn1c(N2CCN(CC(=O)NCc3cccs3)CC2)nc2ccccc21`: -62.7%; `COCCCN(C(=O)CC1OC(=O)c2ccccc21)c1c(N)n(Cc2ccccc2)c(=O)[nH]c1=O` (centres unmarked): 17.8%. As for `O=C(NCCOc1ccccc1)c1cc([N+](=O)[O-])ccc1N1CCOCC1`, the “hERG current change (%, negative = inhibition) at 1uM” value was -26.2%. To `CCc1nnc(NC(=O)CSc2nnc(-c3cccnc3)n2CCc2ccccc2)s1` belongs -2.58%. Next, `O=c1[nH]c(N/N=C\c2ccc3c(c2)OCO3)nc2ccccc12`: -0.163%; `CCCCn1c(SCC(=O)NC(C)(C)C)nnc1-c1ccco1`: 11%. To `CC1(C)CC(=O)C2=C(C1)NCN(CCCN1CCOCC1)C2` belongs 16%. Turning to `O=S(=O)(NCCC1CC1(Cl)Cl)c1ccccc1` (centres unmarked), the “hERG current change (%, negative = inhibition) at 1uM” value worked out at 12.4%.

With `CCOC(=O)C1C2C=CC3(CN(Cc4cccs4)C(=O)C13)O2` (centres unmarked), the “hERG current change (%, negative = inhibition) at 1uM” value is 6.24%. To `CCC(=O)N(CCCN(C)C)c1nc(-c2cc(OC)ccc2OC)cs1.Cl` belongs -8.76%; to `CCc1[nH]nc2c1C(c1ccc(C)o1)C(C#N)=C(N)O2` (centres unmarked), 4.78%; to `O=C(Cn1c(CC(=O)N2CCOCC2)nc2ccccc21)Nc1ccc2c(c1)OC(F)(F)O2`, 4.31%. Consider `O=C(NCCc1ccc(Cl)cc1)c1ccc2[nH]c(=O)c(=O)[nH]c2c1`, for which the “hERG current change (%, negative = inhibition) at 1uM” value came to 11%. To `COC(=O)c1c(NC(=O)CSc2nnnn2-c2ccccc2)sc2c1CCC(C)C2` (centres unmarked) belongs 13.1%; to `NS(=O)(=O)c1ccc(NC(=O)COC(=O)CCC2CCCCC2)cc1`, 2.15%. As to `Cc1cc(C)cc(NC(=S)N2CCCC2)c1`, the “hERG current change (%, negative = inhibition) at 1uM” value was 16.2%. Regarding `O=C(O)C1CCCN1S(=O)(=O)c1ccc(Br)s1.O=C(O)[C@@H]1CCCN1` (centres unmarked), the “hERG current change (%, negative = inhibition) at 1uM” value is listed as 12.4%. Regarding `CN(C(=O)COC(=O)c1cc2ccccc2cc1O)c1c(N)n(Cc2ccccc2)c(=O)[nH]c1=O`, the “hERG current change (%, negative = inhibition) at 1uM” value is reported as -1.89%. Next, `CCC1(c2ccccc2)NC(=O)N(CC(=O)Nc2nnc(C3CC3)s2)C1=O` (centres unmarked): 8.22%; `OC1C2(Cc3ccccc3)CN3CCN(C2)CC1(Cc1ccccc1)C3` (centres unmarked): 11.5%; `COc1ccc(CC(=O)Nc2ccc(S(=O)(=O)NC(C)C)cc2)cc1`: 0.227%.

`O=C(CSCC(=O)N1CCCCC1)Nc1nc(-c2ccccc2)c(-c2ccccc2)s1`: the “hERG current change (%, negative = inhibition) at 1uM” value is recorded as 16.5%. As to `Cc1ccc2c(CC(=O)N(C)c3c(N)n(Cc4ccccc4)c(=O)[nH]c3=O)coc2c1`, the “hERG current change (%, negative = inhibition) at 1uM” value is reported as 8.06%.

For `Cn1c(=O)oc2cc(S(=O)(=O)N3CCCC(C(=O)Nc4ccccn4)C3)ccc21` (centres unmarked), the “hERG current change (%, negative = inhibition) at 1uM” value is 5.85%. To `Cc1nn(C)cc1CNC(=O)c1cccc(Br)c1` belongs 5.11%. Next, `CCOC(=O)CSc1ccc(S(=O)(=O)N2CCC(C)CC2)cc1[N+](=O)[O-]`: 11.9%; `CC(CN1C(C)CCCC1C)OC(=O)c1ccc(Cl)cc1Cl` (centres unmarked): -8.9%. Regarding `O=C(Nc1nncs1)C1(c2ccccc2)CCCC1`, the “hERG current change (%, negative = inhibition) at 1uM” value turned out to be 4.19%.

For the molecule `O=C(NCCc1ccccc1)C(=O)NCC1CCNCC1`, the “hERG current change (%, negative = inhibition) at 1uM” value turned out to be 0.917%. Next, `Cc1ccccc1-n1c(=O)cc(N2CCN(Cc3ccccc3)CC2)[nH]c1=O`: 8.64%; `CCC(CC)N1CCN(CCc2ccccc2)C(CCO)C1` (centres unmarked): 6.29%. Next, `Cc1onc(-c2ccccc2Cl)c1C(=O)O/N=C(\N)c1ccc([N+](=O)[O-])o1`: -11.2%; `CCN1C(=O)C(=O)N(Cc2ccc(OC)c(F)c2)C1=O`: 9.94%. To `O=C(Nc1ccc(F)cc1)Nc1nnc(Cc2ccccc2)s1` belongs 13.5%; to `Cc1sc2nc(C3CC3)nc(N3CCN(C(=O)c4ccc(F)cc4)CC3)c2c1C.Cl`, 1.1%; to `Cn1c(=O)c2ccccc2n2c(CCl)nnc12`, 7.44%. As for `Cc1c(CN2CCCC(C(=O)Nc3cccc(-n4cccn4)c3)C2)cnn1C` (centres unmarked), the “hERG current change (%, negative = inhibition) at 1uM” value is on record as 11.7%. Turning to `CCCCSC1(SCCCC)N=C(N)C2(C#N)C(c3ccccc3)NC(C)=CC12C#N` (centres unmarked), the “hERG current change (%, negative = inhibition) at 1uM” value is given as 7.48%. Next, `O=P(O)(O)C12CC3CC(CC(C3)C1)C2`: 7.66%; `O=C(C[n+]1cc(-c2ccccc2)n2c1CCCCC2)c1ccc(Cl)cc1.[Br-]`: 0.871%. Next, `CC1(C)CC(=O)C(C=Nc2ccc(O)c(N=CC3=C(O)CC(C)(C)CC3=O)c2)=C(O)C1`: 4.95%; `NC(=O)c1ccc(NC(=O)c2cncn2-c2ccccc2)cc1`: 17.7%; `COc1ccc(OC)c(NC(=O)CSc2nnc(-c3cccnc3)s2)c1`: 0.389%. Take `CCN(CC)Cc1c(C(=O)N/N=C/c2ccc(C)o2)nnn1-c1nonc1N`: the “hERG current change (%, negative = inhibition) at 1uM” value is recorded as -0.651%. Consider `Br.C=CCn1c(=N)n(CC(=O)c2ccc(Cl)cc2)c2ccccc21`, for which the “hERG current change (%, negative = inhibition) at 1uM” value is on record as -0.66%.

`COc1ccc(-c2nnn(CC(=O)Nc3ccc4c(c3)OCCO4)n2)cc1OC`: the “hERG current change (%, negative = inhibition) at 1uM” value turned out to be 10.5%. To `Cc1ccc(NC(=S)NCc2cccn2C)cc1` belongs -2.66%. Next, `COCCn1nnnc1C(c1cc2cc(C)ccc2[nH]c1=O)N1CCN(C2CCCCC2)CC1` (centres unmarked): -5.14%; `CCCc1cc(=O)oc2cc(C)c3c(C)coc3c12`: 11.8%; `CCOC(=O)C(=CNc1ccc(Oc2cccnc2)nc1)C(=O)OCC`: 7.04%. Next, `CC1(C)O[C@@H]2C[C@H]3[C@@H]4C[C@H](F)C5=CC(=O)C=C[C@]5(C)[C@H]4[C@@H](O)C[C@]3(C)[C@]2(C(=O)CO)O1`: 16.5%; `COc1ccc(S(=O)(=O)N(C)c2ccc(C(=O)NCc3ccncc3)cc2)cc1`: -2.09%.

With `CC(C)C(=O)NNC(=O)CSc1nc(C2CCCCC2)nc2ccccc12`, the “hERG current change (%, negative = inhibition) at 1uM” value is 6.83%. Regarding `Cc1cccc(NC(=O)c2ccc(COc3ccc4ccccc4c3)o2)n1`, the “hERG current change (%, negative = inhibition) at 1uM” value was 3.29%. To `Cc1ccccc1NC(=O)CN1C(=O)CSc2ccc(S(=O)(=O)N3CCCC3)cc21` belongs 14.4%.

As for `O=C(Nc1ccccc1)C1CCCN(C(=O)c2ccc(F)cc2)C1` (centres unmarked), the “hERG current change (%, negative = inhibition) at 1uM” value is listed as -6.42%. To `COCc1cc(=O)[nH]c(SCC(=O)Nc2ccccc2)n1` belongs 4.15%. To `CC(C)CCNC(=O)CCCOc1ccccc1` belongs -1.8%; to `COc1ccc(NC(=O)c2ccc(OC(F)F)cc2)cc1Cl`, 6.28%; to `COc1cccc(C=Nc2cc(C)on2)c1O`, 10.1%.

Turning to `COc1ccccc1C1C2=C(CC(C)(C)CC2=O)N(CC(=O)O)C2=C1C(=O)CC(C)(C)C2`, the “hERG current change (%, negative = inhibition) at 1uM” value came out at 19.2%. To `Cc1cc(C)nc(N/C(=N\S(=O)(=O)Cc2ccccc2)Nc2ccccc2Br)n1` belongs 12.2%.
